One test addresses T1, CCZ1 (1–482) (human, UniProt P86791 1-482).
T1 construct: human CCZ1, residues 1-482; Subunit of m3, written alone for the pairwise contacts in the structure
T1 sequence (looked up): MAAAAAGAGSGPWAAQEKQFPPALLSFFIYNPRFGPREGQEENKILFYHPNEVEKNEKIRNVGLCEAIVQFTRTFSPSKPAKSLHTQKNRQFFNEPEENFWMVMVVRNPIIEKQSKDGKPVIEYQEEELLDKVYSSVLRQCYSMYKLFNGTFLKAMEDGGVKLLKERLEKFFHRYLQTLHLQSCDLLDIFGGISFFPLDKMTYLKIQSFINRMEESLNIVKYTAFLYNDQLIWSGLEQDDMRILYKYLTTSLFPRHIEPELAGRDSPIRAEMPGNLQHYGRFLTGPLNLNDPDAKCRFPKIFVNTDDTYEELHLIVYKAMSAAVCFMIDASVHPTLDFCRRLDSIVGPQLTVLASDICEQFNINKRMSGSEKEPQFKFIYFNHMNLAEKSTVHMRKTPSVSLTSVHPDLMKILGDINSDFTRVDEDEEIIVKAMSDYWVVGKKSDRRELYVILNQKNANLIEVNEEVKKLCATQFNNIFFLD
Put plainly: cryo-EM structure; MON1A (235–652)/CCZ1 (1–482)/C18orf8 (1–657)/Rab7A (1–181) T22N complex, 3.41 Å. The settings on record: both partners purified.

Test [1] has as its target T2, MON1A/CCZ1/C18orf8 complex (purified, used for SEC and MALS) (human, UniProt Q86VX9; P86791; Q96DM3).
T2 construct: human MON1A; human CCZ1; Methods are in the supplement; copies: 1 + 1 + 1
The experiment in a line: SEC-MALS; MALS measurement of the purified MON1A/CCZ1/C18orf8/Rab7A (1–181) T22N quaternary complex in solution. The settings on record: both partners purified.

This note sets out measurements from publication PMC12342132, “Mechanistic insights into the GEF activity of the human MON1A/CCZ1/C18orf8 complex” (Protein & Cell, 2025).

B1: Rab7A ([…]) T22N (domain or fragment)
chain: not shown
notes: human Rab7A […] (C-terminal membrane-associating region […] deleted) with T22N; In the Cryo-EM structure GDP and Mg2+ are missing from Rab7A; also called T22N mutant of Rab7A ([…]); source: E. coli cells, purified
With B1, the binding result with CCZ1 (1–482) is given as “binds”. Moreover, the “stoichiometry N” value in test [1] was 1.
